Consider two molecules from paper PMC6937578.

The chains behind the UniProt entries cited, without tags or fusion partners. Where a name states a change or a piece, a line headed by the entry shows the natural chain unless it says otherwise. Residues count along the entry.
UniProt P62993: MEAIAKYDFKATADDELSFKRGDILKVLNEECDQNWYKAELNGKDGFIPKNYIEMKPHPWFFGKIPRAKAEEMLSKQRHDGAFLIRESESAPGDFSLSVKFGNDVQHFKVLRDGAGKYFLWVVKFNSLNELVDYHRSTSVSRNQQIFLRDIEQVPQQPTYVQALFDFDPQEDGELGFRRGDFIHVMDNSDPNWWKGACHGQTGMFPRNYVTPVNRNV
GST-Grb2-SH2: residues 60-152 of P62993
UniProt P46109: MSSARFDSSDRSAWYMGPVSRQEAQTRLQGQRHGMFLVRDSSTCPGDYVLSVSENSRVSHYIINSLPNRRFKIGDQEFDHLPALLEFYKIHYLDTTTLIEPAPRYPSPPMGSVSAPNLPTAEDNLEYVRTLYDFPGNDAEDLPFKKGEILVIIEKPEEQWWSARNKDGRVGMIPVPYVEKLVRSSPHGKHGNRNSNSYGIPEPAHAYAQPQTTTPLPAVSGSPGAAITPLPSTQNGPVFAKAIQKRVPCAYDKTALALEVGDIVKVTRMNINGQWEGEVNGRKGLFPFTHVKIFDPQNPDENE
UniProt P27986, residues 3-79: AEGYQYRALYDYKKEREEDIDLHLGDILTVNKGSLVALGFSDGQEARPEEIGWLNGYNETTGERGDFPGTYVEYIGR

These are yes or no findings as the source states them, for the method shown. For some assays here: Binding seen in cells or lysates may run through a third protein. Some results given as binding are weak or reduced against the parent protein; the word gives no strength. For some assays here: Where a sequence is shown, tags or fusion partners need not be part of it.

The target of one assay is FLAG-Grb2 (UniProt P62993). The assay is described as follows: co-IP; HEK293T cells co-transfected, lysed 24 h after transfection (20 mM Tris, 150 mM NaCl, 0.5% Nonidet P-40, 1 mM EDTA, pH 8.0); immunoprecipitation with anti-FLAG M2 beads, blot for Myc.
The next assay deals with FLAG-CRKL (UniProt P46109). The description is as above.
For another assay, the target named is GST-Grb2-SH2 (UniProt P62993). The assay is described as follows: pull-down; GST-tagged bait (50 or 100 μg) on 100 μl GSH beads in PBS; 50 μg of BCAP (FL) or dephosphorylated BCAP (FL) applied; three washes with PBS, elution with 10 mM reduced GSH, SDS-PAGE; both purified.
In the next assay the target is GST-p85-SH3 (UniProt P27986). The description is as above.
Another assay has as its target GST-CRKL (UniProt P46109). Described as above.

B1: Myc-BCAP (protein, UniProt Q6ZUJ8 1-805)
chain: MAASGVPRGCDILIVYSPDAEEWCQYLQTLFLSSRQVRSQKILTHRLGPEASFSAEDLSLFLSTRCVVVLLSAELVQHFHKPALLPLLQRAFHPPHRVVRLLCGVRDSEEFLDFFPDWAHWQELTCDDEPETYVAAVKKAISEDSGCDSVTDTEPEDEKVVSYSKQQNLPTVTSPGNLMVVQPDRIRCGAETTVYVIVRCKLDDRVATEAEFSPEDSPSVRMEAKVENEYTISVKAPNLSSGNVSLKIYSGDLVVCETVISYYTDMEEIGNLLSNAANPVEFMCQAFKIVPYNTETLDKLLTESLKNNIPASGLHLFGINQLEEEDMMTNQRDEELPTLLHFAAKYGLKNLTALLLTCPGALQAYSVANKHGHYPNTIAEKHGFRDLRQFIDEYVETVDMLKSHIKEELMHGEEADAVYESMAHLSTDLLMKCSLNPGCDEDLYESMAAFVPAATEDLYVEMLQASTSNPIPGDGFSRATKDSMIRKFLEGNSMGMTNLERDQCHLGQEEDVYHTVDDDEAFSVDLASRPPVPVPRPETTAPGAHQLPDNEPYIFKVFAEKSQERPGNFYVSSESIRKGPPVRPWRDRPQSSIYDPFAGMKTPGQRQLITLQEQVKLGIVNVDEAVLHFKEWQLNQKKRSESFRFQQENLKRLRDSITRRQREKQKSGKQTDLEITVPIRHSQHLPAKVEFGVYESGPRKSVIPPRTELRRGDWKTDSTSSTASSTSNRSSTRSLLSVSSGMEGDNEDNEVPEVTRSRSPGPPQVDGTPTMSLERPPRVPPRAASQRPPTRETFHPPPPVPPRGR
With B1, the binding result is “binds” with FLAG-Grb2 and “no binding” with FLAG-CRKL.

B2: dephosphorylated BCAP (FL) (protein, UniProt Q6ZUJ8 1-805)
chain: MAASGVPRGCDILIVYSPDAEEWCQYLQTLFLSSRQVRSQKILTHRLGPEASFSAEDLSLFLSTRCVVVLLSAELVQHFHKPALLPLLQRAFHPPHRVVRLLCGVRDSEEFLDFFPDWAHWQELTCDDEPETYVAAVKKAISEDSGCDSVTDTEPEDEKVVSYSKQQNLPTVTSPGNLMVVQPDRIRCGAETTVYVIVRCKLDDRVATEAEFSPEDSPSVRMEAKVENEYTISVKAPNLSSGNVSLKIYSGDLVVCETVISYYTDMEEIGNLLSNAANPVEFMCQAFKIVPYNTETLDKLLTESLKNNIPASGLHLFGINQLEEEDMMTNQRDEELPTLLHFAAKYGLKNLTALLLTCPGALQAYSVANKHGHYPNTIAEKHGFRDLRQFIDEYVETVDMLKSHIKEELMHGEEADAVYESMAHLSTDLLMKCSLNPGCDEDLYESMAAFVPAATEDLYVEMLQASTSNPIPGDGFSRATKDSMIRKFLEGNSMGMTNLERDQCHLGQEEDVYHTVDDDEAFSVDLASRPPVPVPRPETTAPGAHQLPDNEPYIFKVFAEKSQERPGNFYVSSESIRKGPPVRPWRDRPQSSIYDPFAGMKTPGQRQLITLQEQVKLGIVNVDEAVLHFKEWQLNQKKRSESFRFQQENLKRLRDSITRRQREKQKSGKQTDLEITVPIRHSQHLPAKVEFGVYESGPRKSVIPPRTELRRGDWKTDSTSSTASSTSNRSSTRSLLSVSSGMEGDNEDNEVPEVTRSRSPGPPQVDGTPTMSLERPPRVPPRAASQRPPTRETFHPPPPVPPRGR
modifications: dephosphorylated with λ-protein phosphatase
On to B2, for which the binding result is “no binding” in the assay with GST-Grb2-SH2, “binds” with GST-p85-SH3 and “no binding” in the assay with GST-CRKL.
